The values that follow come from article PMC12820563.

This is one part of the list. The list includes weakly bound sequences.

The target of the experiment is T1, MBP-FoxP3dN (UniProt Q99JB6).
T1 sequence: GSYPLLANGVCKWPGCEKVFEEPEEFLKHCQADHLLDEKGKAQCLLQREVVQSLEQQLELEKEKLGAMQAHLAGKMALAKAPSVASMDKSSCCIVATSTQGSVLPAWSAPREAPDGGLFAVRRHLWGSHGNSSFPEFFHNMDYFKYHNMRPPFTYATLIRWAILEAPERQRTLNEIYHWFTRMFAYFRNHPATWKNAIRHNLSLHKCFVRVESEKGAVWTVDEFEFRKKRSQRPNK
As to the kind of experiment: PD-seq (MBP pull-down with sequencing). The note with it: 20 mM Tris-HCl pH 7.5, 100 mM NaCl, 1.5 mM MgCl2, 0.4 uM protein, 0.1 uM dsDNA library, 30 min, room temperature, amylose pull-down; high values mean tight binding; double strand, one strand shown.
For the sequence “GATGATTGTTCTCCCAGCTGATGAATTACGCCAATCGAGTAAACAAATTTTCCTAATCTTTCTGTTCAAGCGCCATCTAC”, the binding signal (RPM ratio (pull-down/input)) came out at 0.835. With “GATGATTGTTCTCCCAGCTGATGAATTAGAAATCTCGAGTAAACAAATTTTCCTAATCTTTCTGTTCAAGCGCCATCTAC”, the binding signal (RPM ratio (pull-down/input)) worked out at 0.275. Take “GATGATTGTTCTCCCAGCTGATGAATTATGGGAATCGAGTAAACAAATTTTCCTAATCTTTCTGTTCAAGCGCCATCTAC”: the binding signal (RPM ratio (pull-down/input)) was found to be 0.287.

In the case of “GATGATTGTTCTCCCAGCTGATGAATTGCCTGAGTCGAGTAAACAAATTTTCCTAATCTTTCTGTTCAAGCGCCATCTAC”, the binding signal (RPM ratio (pull-down/input)) came out at 0.388. As to “GATGATTGTTCTCCCAGCTGATGAATTAGAAAGCTCGAGTAAACAAATTTTCCTAATCTTTCTGTTCAAGCGCCATCTAC”, the binding signal (RPM ratio (pull-down/input)) turned out to be 0.264. In the case of “GATGATTGTTCTCCCAGCTGATGAATTCTTATATTCGAGTAAACAAATTTTCCTAATCTTTCTGTTCAAGCGCCATCTAC”, the binding signal (RPM ratio (pull-down/input)) stood at 0.409. On to “GATGATTGTTCTCCCAGCTGATGAATTGATTGAATCGAGTAAACAAATTTTCCTAATCTTTCTGTTCAAGCGCCATCTAC”, for which the binding signal (RPM ratio (pull-down/input)) was 0.339. For “GATGATTGTTCTCCCAGCTGATGAATTGCGGTATTCGAGTAAACAAATTTTCCTAATCTTTCTGTTCAAGCGCCATCTAC” the value was 1.67; for “GATGATTGTTCTCCCAGCTGATGAATTCATGCGATCGAGTAAACAAATTTTCCTAATCTTTCTGTTCAAGCGCCATCTAC”, 0.775. On to “GATGATTGTTCTCCCAGCTGATGAATTCAGCGCTTCGAGTAAACAAATTTTCCTAATCTTTCTGTTCAAGCGCCATCTAC”, for which the binding signal (RPM ratio (pull-down/input)) amounted to 0.663. “GATGATTGTTCTCCCAGCTGATGAATTGAACCCTTCGAGTAAACAAATTTTCCTAATCTTTCTGTTCAAGCGCCATCTAC”: the binding signal (RPM ratio (pull-down/input)) stood at 0.284. On to “GATGATTGTTCTCCCAGCTGATGAATTTGTGATTTCGAGTAAACAAATTTTCCTAATCTTTCTGTTCAAGCGCCATCTAC”, for which the binding signal (RPM ratio (pull-down/input)) is 5.37. On to “GATGATTGTTCTCCCAGCTGATGAATTGCTGTCTTCGAGTAAACAAATTTTCCTAATCTTTCTGTTCAAGCGCCATCTAC”, for which the binding signal (RPM ratio (pull-down/input)) was determined as 1.11.

“GATGATTGTTCTCCCAGCTGATGAATTAGGACGGTCGAGTAAACAAATTTTCCTAATCTTTCTGTTCAAGCGCCATCTAC”: the binding signal (RPM ratio (pull-down/input)) is 0.222. In the case of “GATGATTGTTCTCCCAGCTGATGAATTCCCCCACTCGAGTAAACAAATTTTCCTAATCTTTCTGTTCAAGCGCCATCTAC”, the binding signal (RPM ratio (pull-down/input)) is 0.253. For the sequence “GATGATTGTTCTCCCAGCTGATGAATTCAACAGGTCGAGTAAACAAATTTTCCTAATCTTTCTGTTCAAGCGCCATCTAC”, the binding signal (RPM ratio (pull-down/input)) was 0.252. For “GATGATTGTTCTCCCAGCTGATGAATTAATTGATTCGAGTAAACAAATTTTCCTAATCTTTCTGTTCAAGCGCCATCTAC”, the binding signal (RPM ratio (pull-down/input)) worked out at 2.02. As to “GATGATTGTTCTCCCAGCTGATGAATTCCATTCATCGAGTAAACAAATTTTCCTAATCTTTCTGTTCAAGCGCCATCTAC”, the binding signal (RPM ratio (pull-down/input)) came out at 0.496. For the sequence “GATGATTGTTCTCCCAGCTGATGAATTCTCGGTGTCGAGTAAACAAATTTTCCTAATCTTTCTGTTCAAGCGCCATCTAC”, the binding signal (RPM ratio (pull-down/input)) stood at 0.364. “GATGATTGTTCTCCCAGCTGATGAATTTCTGAACTCGAGTAAACAAATTTTCCTAATCTTTCTGTTCAAGCGCCATCTAC”: the binding signal (RPM ratio (pull-down/input)) stood at 0.221.

On to “GATGATTGTTCTCCCAGCTGATGAATTTATAGCGTCGAGTAAACAAATTTTCCTAATCTTTCTGTTCAAGCGCCATCTAC”, for which the binding signal (RPM ratio (pull-down/input)) came to 1.26. For the sequence “GATGATTGTTCTCCCAGCTGATGAATTAGAAATATCGAGTAAACAAATTTTCCTAATCTTTCTGTTCAAGCGCCATCTAC”, the binding signal (RPM ratio (pull-down/input)) amounted to 0.341. In the case of “GATGATTGTTCTCCCAGCTGATGAATTACACCAATCGAGTAAACAAATTTTCCTAATCTTTCTGTTCAAGCGCCATCTAC”, the binding signal (RPM ratio (pull-down/input)) amounted to 0.479. As to “GATGATTGTTCTCCCAGCTGATGAATTCATTGTATCGAGTAAACAAATTTTCCTAATCTTTCTGTTCAAGCGCCATCTAC”, the binding signal (RPM ratio (pull-down/input)) worked out at 1.67.

Consider “GATGATTGTTCTCCCAGCTGATGAATTCGGAACTTCGAGTAAACAAATTTTCCTAATCTTTCTGTTCAAGCGCCATCTAC”, for which the binding signal (RPM ratio (pull-down/input)) was 0.23. For the sequence “GATGATTGTTCTCCCAGCTGATGAATTTATTCTATCGAGTAAACAAATTTTCCTAATCTTTCTGTTCAAGCGCCATCTAC”, the binding signal (RPM ratio (pull-down/input)) stood at 0.549.

“GATGATTGTTCTCCCAGCTGATGAATTGGTTCCCTCGAGTAAACAAATTTTCCTAATCTTTCTGTTCAAGCGCCATCTAC”: the binding signal (RPM ratio (pull-down/input)) came out at 0.362. In the case of “GATGATTGTTCTCCCAGCTGATGAATTCTTAAGGTCGAGTAAACAAATTTTCCTAATCTTTCTGTTCAAGCGCCATCTAC”, the binding signal (RPM ratio (pull-down/input)) is 0.156. As for “GATGATTGTTCTCCCAGCTGATGAATTTACGAGCTCGAGTAAACAAATTTTCCTAATCTTTCTGTTCAAGCGCCATCTAC”, the binding signal (RPM ratio (pull-down/input)) was found to be 0.335.

Regarding “GATGATTGTTCTCCCAGCTGATGAATTTCGTGGATCGAGTAAACAAATTTTCCTAATCTTTCTGTTCAAGCGCCATCTAC”, the binding signal (RPM ratio (pull-down/input)) is 0.41. In the case of “GATGATTGTTCTCCCAGCTGATGAATTAGGCCCTTCGAGTAAACAAATTTTCCTAATCTTTCTGTTCAAGCGCCATCTAC”, the binding signal (RPM ratio (pull-down/input)) came to 0.879.
